{"source": "the supplement of paper PMC8728848", "assay_in_all_cases": "glycan array binding signal (z-score within array); higher = stronger binding", "settings_in_all_cases": "glycan notation: IUPAC condensed, linker removed", "key": {"[1]": {"target": "Gal(b1-4)GlcNAc(b1-3)Gal(b1-4)[Fuc(a1-3)GlcNAc(b1-6)]Gal(b1-4)Glc", "in_short": "(§1)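 The binding signal is a Z-score computed within each array and averaged over linkers. Arrays of the same protein sequence at different concentrations or buffers were also averaged together. Data originate from 3228 arrays in the Consortium for Functional Glycomics database, kept only where the protein sequence was available.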"}, "[2]": {"target": "Gal(b1-4)GlcNAc(b1-3)Gal(b1-4)[Fuc(a1-3)]GlcNAc(b1-3)Gal(b1-4)[Fuc(a1-3)]GlcNAc", "in_short": "as §1"}, "[3]": {"target": "Gal(b1-4)GlcNAc(b1-3)GalNAc", "in_short": "as §1"}, "[4]": {"target": "Gal(b1-4)GlcNAc(b1-3)[Gal(b1-4)GlcNAc(b1-6)]Gal(b1-4)GlcNAc", "in_short": "as §1"}, "[5]": {"target": "Gal(b1-4)GlcNAc(b1-3)[Gal(b1-4)GlcNAc(b1-6)]GalNAc", "in_short": "as §1"}, "[6]": {"target": "Gal(b1-4)GlcNAc(b1-3)[GlcNAc(b1-6)]Gal(b1-4)GlcNAc", "in_short": "as §1"}, "[7]": {"target": "Gal(b1-4)GlcNAc(b1-6)Gal(b1-4)GlcNAc", "in_short": "as §1"}, "[8]": {"target": "Gal(b1-4)GlcNAc(b1-6)GalNAc", "in_short": "as §1"}, "[9]": {"target": "Gal(b1-4)GlcNAc(b1-6)[Gal(b1-3)]GalNAc", "in_short": "as §1"}, "Gal(b1-6)Gal": {"target": "Gal(b1-6)Gal", "in_short": "as §1"}, "Gal3S(b1-3)GalNAc": {"target": "Gal3S(b1-3)GalNAc", "in_short": "as §1"}, "Gal3S(b1-3)GlcNAc": {"target": "Gal3S(b1-3)GlcNAc", "in_short": "as §1"}, "[10]": {"target": "Gal3S(b1-3)[Fuc(a1-4)]GlcNAc", "in_short": "as §1"}, "Gal3S(b1-4)Glc": {"target": "Gal3S(b1-4)Glc", "in_short": "as §1"}, "Gal3S(b1-4)Glc6S": {"target": "Gal3S(b1-4)Glc6S", "in_short": "as §1"}, "Gal3S(b1-4)GlcNAc": {"target": "Gal3S(b1-4)GlcNAc", "in_short": "as §1"}, "Gal3S(b1-4)GlcNAc6S": {"target": "Gal3S(b1-4)GlcNAc6S", "in_short": "as §1"}, "[11]": {"target": "Gal3S(b1-4)[Fuc(a1-3)]Glc", "in_short": "as §1"}, "[12]": {"target": "Gal3S(b1-4)[Fuc(a1-3)]Glc6S", "in_short": "as §1"}, "Gal3S4S(b1-4)GlcNAc": {"target": "Gal3S4S(b1-4)GlcNAc", "in_short": "as §1"}, "Gal3S6S(b1-4)GlcNAc": {"target": "Gal3S6S(b1-4)GlcNAc", "in_short": "as §1"}, "Gal3S6S(b1-4)GlcNAc6S": {"target": "Gal3S6S(b1-4)GlcNAc6S", "in_short": "as §1"}, "Gal4S(b1-4)GlcNAc": {"target": "Gal4S(b1-4)GlcNAc", "in_short": "as §1"}, "Gal4S6S(b1-4)GlcNAc": {"target": "Gal4S6S(b1-4)GlcNAc", "in_short": "as §1"}, "Gal6S(b1-3)GlcNAc": {"target": "Gal6S(b1-3)GlcNAc", "in_short": "as §1"}, "Gal6S(b1-3)GlcNAc6S": {"target": "Gal6S(b1-3)GlcNAc6S", "in_short": "as §1"}, "Gal6S(b1-4)Glc": {"target": "Gal6S(b1-4)Glc", "in_short": "as §1"}, "Gal6S(b1-4)Glc6S": {"target": "Gal6S(b1-4)Glc6S", "in_short": "as §1"}, "Gal6S(b1-4)GlcNAc": {"target": "Gal6S(b1-4)GlcNAc", "in_short": "as §1"}, "Gal6S(b1-4)GlcNAc6S": {"target": "Gal6S(b1-4)GlcNAc6S", "in_short": "as §1"}, "GalNAc(a1-3)Gal": {"target": "GalNAc(a1-3)Gal", "in_short": "as §1"}, "GalNAc(a1-3)GalNAc": {"target": "GalNAc(a1-3)GalNAc", "in_short": "as §1"}, "[13]": {"target": "GalNAc(a1-3)GalNAc(a1-3)Gal(a1-4)Gal(b1-4)GlcNAc", "in_short": "as §1"}, "[14]": {"target": "GalNAc(a1-3)GalNAc(b1-3)Gal(a1-4)Gal(b1-4)Glc", "in_short": "as §1"}, "GalNAc(b1-3)Gal": {"target": "GalNAc(b1-3)Gal", "in_short": "as §1"}, "[15]": {"target": "GalNAc(b1-3)Gal(a1-4)Gal(b1-4)GlcNAc", "in_short": "as §1"}, "[16]": {"target": "GalNAc(b1-3)Gal(a1-4)Gal(b1-4)GlcNAc(b1-3)Gal(b1-4)Glc", "in_short": "as §1"}, "[17]": {"target": "GalNAc(b1-3)Gal(a1-6)Gal(b1-4)Glc", "in_short": "as §1"}}, "note": "Some of the results follow.", "data": [{"binder": "Gal 3 (Canis lupus) (protein) MADSFSLNDALSGSGNPNPQGWPGPWGNQPAGAGGYPGASYPGAYPGQAPPGGYPGQAPPGGYPGQAPPGGYPGQAPPGGYPGQAPPGGYPGQAPPGTYPGPTAPAYPGPTAPGTQPGQPSGPGAYPPPGQPSAPGAYPAAGPFGIPAGPLTVPYDLPLPGGVKPRMLITILGTVRPSANRLALDFKRGNDVAFHFNPRFNEDNKRVIVCNTKLDNIWGKEERQAAFPFESGKPFKIQVLVESDHFKVAVNDAHLLQYNHRMKNLPEISKLGISGDIDLTSASYAMI", "values": [{"measurement": "glycan array binding signal (z-score)", "setting": "[1]", "result": -0.159}, {"measurement": "glycan array binding signal (z-score)", "setting": "[2]", "result": -0.022}, {"measurement": "glycan array binding signal (z-score)", "setting": "[3]", "result": -0.224}, {"measurement": "glycan array binding signal (z-score)", "setting": "[4]", "result": 0.024}, {"measurement": "glycan array binding signal (z-score)", "setting": "[5]", "result": -0.096}, {"measurement": "glycan array binding signal (z-score)", "setting": "[6]", "result": -0.195}, {"measurement": "glycan array binding signal (z-score)", "setting": "[7]", "result": -0.251}, {"measurement": "glycan array binding signal (z-score)", "setting": "[8]", "result": -0.224}, {"measurement": "glycan array binding signal (z-score)", "setting": "[9]", "result": -0.249}, {"measurement": "glycan array binding signal (z-score)", "setting": "Gal(b1-6)Gal", "result": -0.128}, {"measurement": "glycan array binding signal (z-score)", "setting": "Gal3S(b1-3)GalNAc", "result": -0.255}, {"measurement": "glycan array binding signal (z-score)", "setting": "Gal3S(b1-3)GlcNAc", "result": 0.079}, {"measurement": "glycan array binding signal (z-score)", "setting": "[10]", "result": -0.244}, {"measurement": "glycan array binding signal (z-score)", "setting": "Gal3S(b1-4)Glc", "result": -0.216}, {"measurement": "glycan array binding signal (z-score)", "setting": "Gal3S(b1-4)Glc6S", "result": -0.054}, {"measurement": "glycan array binding signal (z-score)", "setting": "Gal3S(b1-4)GlcNAc", "result": 0.047}, {"measurement": "glycan array binding signal (z-score)", "setting": "Gal3S(b1-4)GlcNAc6S", "result": 0.421}, {"measurement": "glycan array binding signal (z-score)", "setting": "[11]", "result": -0.266}, {"measurement": "glycan array binding signal (z-score)", "setting": "[12]", "result": -0.212}, {"measurement": "glycan array binding signal (z-score)", "setting": "Gal3S4S(b1-4)GlcNAc", "result": -0.05}, {"measurement": "glycan array binding signal (z-score)", "setting": "Gal3S6S(b1-4)GlcNAc", "result": -0.257}, {"measurement": "glycan array binding signal (z-score)", "setting": "Gal3S6S(b1-4)GlcNAc6S", "result": -0.242}, {"measurement": "glycan array binding signal (z-score)", "setting": "Gal4S(b1-4)GlcNAc", "result": -0.251}, {"measurement": "glycan array binding signal (z-score)", "setting": "Gal4S6S(b1-4)GlcNAc", "result": -0.25}, {"measurement": "glycan array binding signal (z-score)", "setting": "Gal6S(b1-3)GlcNAc", "result": -0.145}, {"measurement": "glycan array binding signal (z-score)", "setting": "Gal6S(b1-3)GlcNAc6S", "result": -0.134}, {"measurement": "glycan array binding signal (z-score)", "setting": "Gal6S(b1-4)Glc", "result": -0.262}, {"measurement": "glycan array binding signal (z-score)", "setting": "Gal6S(b1-4)Glc6S", "result": -0.274}, {"measurement": "glycan array binding signal (z-score)", "setting": "Gal6S(b1-4)GlcNAc", "result": -0.253}, {"measurement": "glycan array binding signal (z-score)", "setting": "Gal6S(b1-4)GlcNAc6S", "result": -0.252}, {"measurement": "glycan array binding signal (z-score)", "setting": "GalNAc(a1-3)Gal", "result": -0.272}, {"measurement": "glycan array binding signal (z-score)", "setting": "GalNAc(a1-3)GalNAc", "result": -0.267}, {"measurement": "glycan array binding signal (z-score)", "setting": "[13]", "result": -0.258}, {"measurement": "glycan array binding signal (z-score)", "setting": "[14]", "result": -0.146}, {"measurement": "glycan array binding signal (z-score)", "setting": "GalNAc(b1-3)Gal", "result": -0.251}, {"measurement": "glycan array binding signal (z-score)", "setting": "[15]", "result": -0.257}, {"measurement": "glycan array binding signal (z-score)", "setting": "[16]", "result": 0.568}, {"measurement": "glycan array binding signal (z-score)", "setting": "[17]", "result": -0.254}]}]}
